For seven molecules, binding results are on record in paper PMC3510517.

Sequences of proteins named here, by UniProt entry; tags and fusion partners are left off.
UniProt O76216: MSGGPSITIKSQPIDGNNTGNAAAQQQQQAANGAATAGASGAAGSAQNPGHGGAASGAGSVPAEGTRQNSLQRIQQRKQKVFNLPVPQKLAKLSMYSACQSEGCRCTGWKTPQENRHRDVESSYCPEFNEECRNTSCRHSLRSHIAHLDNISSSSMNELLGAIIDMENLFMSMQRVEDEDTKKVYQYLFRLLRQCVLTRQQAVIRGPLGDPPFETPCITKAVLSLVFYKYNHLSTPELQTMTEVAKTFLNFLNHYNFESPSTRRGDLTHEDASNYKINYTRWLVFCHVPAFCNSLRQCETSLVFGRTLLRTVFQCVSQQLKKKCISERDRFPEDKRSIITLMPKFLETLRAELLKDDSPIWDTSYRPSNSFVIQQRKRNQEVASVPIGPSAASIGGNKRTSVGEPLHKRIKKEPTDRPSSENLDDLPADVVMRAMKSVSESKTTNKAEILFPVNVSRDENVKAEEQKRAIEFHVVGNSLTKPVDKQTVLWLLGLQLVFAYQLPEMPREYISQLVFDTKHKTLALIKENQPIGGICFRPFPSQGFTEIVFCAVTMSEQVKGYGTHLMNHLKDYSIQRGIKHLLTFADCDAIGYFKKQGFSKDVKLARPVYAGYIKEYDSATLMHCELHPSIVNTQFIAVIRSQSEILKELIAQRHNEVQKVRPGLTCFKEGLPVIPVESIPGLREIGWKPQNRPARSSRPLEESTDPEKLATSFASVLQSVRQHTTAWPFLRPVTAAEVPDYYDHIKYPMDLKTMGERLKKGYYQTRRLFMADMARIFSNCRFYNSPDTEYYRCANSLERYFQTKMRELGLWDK

The target of assay [1] is T1, Nonstop (Drosophila (endogenous in embryos)) (UniProt Q9VVR1).
T1 sequence: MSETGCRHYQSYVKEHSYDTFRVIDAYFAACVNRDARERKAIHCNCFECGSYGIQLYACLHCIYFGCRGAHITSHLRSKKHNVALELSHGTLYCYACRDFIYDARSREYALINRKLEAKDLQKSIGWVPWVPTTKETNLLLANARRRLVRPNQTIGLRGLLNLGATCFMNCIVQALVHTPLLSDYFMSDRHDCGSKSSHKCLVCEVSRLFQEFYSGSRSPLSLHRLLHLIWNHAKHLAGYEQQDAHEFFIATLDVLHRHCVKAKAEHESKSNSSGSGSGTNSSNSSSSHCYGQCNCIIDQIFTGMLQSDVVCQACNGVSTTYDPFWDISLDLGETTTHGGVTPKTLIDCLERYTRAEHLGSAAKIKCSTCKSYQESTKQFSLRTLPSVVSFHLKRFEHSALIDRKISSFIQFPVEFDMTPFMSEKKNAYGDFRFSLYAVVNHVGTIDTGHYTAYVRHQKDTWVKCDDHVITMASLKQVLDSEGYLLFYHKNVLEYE
Kind of assay: co-IP; endogenous proteins from nuclear extract of Drosophila embryos; extract treated with DNase I and RNase before immunoprecipitation; affinity-purified rabbit antibodies, preimmune serum or IgG as control; western blot.

Assay [2] concerns the target T2, Sgf11 (Drosophila (endogenous in embryos)) (UniProt Q9VVR6).
T2 sequence: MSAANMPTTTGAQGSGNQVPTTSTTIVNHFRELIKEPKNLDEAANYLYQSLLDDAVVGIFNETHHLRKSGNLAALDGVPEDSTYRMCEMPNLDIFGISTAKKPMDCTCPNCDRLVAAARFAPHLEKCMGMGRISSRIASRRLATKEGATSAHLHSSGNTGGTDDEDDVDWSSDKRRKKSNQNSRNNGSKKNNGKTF
The assay is described as above.

In assay [3] the target is T3, FLAG-tagged Sgf11 (Drosophila) (UniProt Q9VVR6).
T3 sequence: T2 sequence
Kind of assay: co-IP; FLAG-tagged Sgf11 co-expressed with HA-tagged Cbp80 or HA-tagged Cbp20 in transiently transfected S2 cells; immunoprecipitation with anti-FLAG, anti-HA or IgG; western blot with anti-FLAG or anti-HA.

The target in assay [4] is T2, Sgf11 (Drosophila (endogenous in embryos)). Kind of assay: co-IP; low molecular weight Superose 6 fractions 28-31 of Drosophila embryonic nuclear extract (treated with DNase I and RNase); antibodies against Sgf11, Nonstop and ENY2 or preimmune serum; western blot.
Assay [5] shares this target. Kind of assay: co-IP; endogenous proteins from nuclear extract of Drosophila embryos; extract treated with DNase I and RNase before immunoprecipitation; affinity-purified rabbit antibodies, preimmune serum or IgG as control; western blot. The source holds these as a separate data set.
Assay [6] concerns the target T1, Nonstop (Drosophila (endogenous in embryos)). The assay is described as above. This is another data set of the same source.
The target in assay [7] is T4, HA-tagged Cbp80 (Drosophila) (UniProt Q7K4N3).
T4 sequence: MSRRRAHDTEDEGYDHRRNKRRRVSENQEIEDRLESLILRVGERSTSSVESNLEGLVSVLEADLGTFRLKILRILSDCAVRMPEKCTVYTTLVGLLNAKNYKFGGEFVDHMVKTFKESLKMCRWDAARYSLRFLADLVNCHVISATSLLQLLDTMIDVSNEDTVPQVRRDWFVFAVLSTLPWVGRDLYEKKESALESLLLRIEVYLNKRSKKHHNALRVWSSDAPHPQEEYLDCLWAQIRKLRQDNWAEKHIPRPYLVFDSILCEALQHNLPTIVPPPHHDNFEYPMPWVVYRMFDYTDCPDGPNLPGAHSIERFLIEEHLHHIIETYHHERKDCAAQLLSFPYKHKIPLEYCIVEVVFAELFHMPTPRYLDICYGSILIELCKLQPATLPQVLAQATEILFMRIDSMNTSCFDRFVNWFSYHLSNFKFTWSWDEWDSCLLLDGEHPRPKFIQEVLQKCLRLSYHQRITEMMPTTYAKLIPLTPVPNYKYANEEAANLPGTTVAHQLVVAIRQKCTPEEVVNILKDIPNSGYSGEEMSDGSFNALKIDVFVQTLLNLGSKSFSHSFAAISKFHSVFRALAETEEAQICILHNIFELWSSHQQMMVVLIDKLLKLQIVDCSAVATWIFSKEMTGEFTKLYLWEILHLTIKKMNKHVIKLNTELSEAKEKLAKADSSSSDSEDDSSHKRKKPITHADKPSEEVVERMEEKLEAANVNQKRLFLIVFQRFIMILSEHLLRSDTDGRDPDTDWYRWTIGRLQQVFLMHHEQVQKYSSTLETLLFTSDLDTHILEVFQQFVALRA
Kind of assay: co-IP; FLAG-tagged Sgf11 co-expressed with HA-tagged Cbp80 or HA-tagged Cbp20 in transiently transfected S2 cells; immunoprecipitation with anti-FLAG, anti-HA or IgG; western blot with anti-FLAG or anti-HA.

For assay [8], the target named is T5, ENY2 (Drosophila (endogenous in embryos)) (UniProt Q9VYX1).
T5 sequence: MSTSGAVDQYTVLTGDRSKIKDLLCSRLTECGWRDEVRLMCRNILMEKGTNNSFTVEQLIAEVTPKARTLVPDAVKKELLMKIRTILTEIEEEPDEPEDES
Kind of assay: co-IP; low molecular weight Superose 6 fractions 28-31 of Drosophila embryonic nuclear extract (treated with DNase I and RNase); antibodies against Sgf11, Nonstop and ENY2 or preimmune serum; western blot.

Like-named read-outs stand apart in the source and are kept apart here. Results are given in words; binding and its absence hold for the method and conditions named. Binding seen in cells or lysates may run through a third protein. Some results given as binding are weak or reduced against the parent protein; the word gives no strength. For some of these results: Tags and fused reporters may be left off the sequences shown.

For the molecule “Gcn5 subunit of SAGA (from UniProt O76216 1-813)”, the binding result in assay [1] and in assay [2] was “binds” each time.

B1: HA-tagged Cbp80 (protein, UniProt Q7K4N3 1-800)
chain: T4 sequence
With B1, the binding entry in assay [3] is “binds”.

B2: HA-tagged Cbp20 (protein, UniProt Q9V3L6 1-154)
chain: MFASVELSSYRDQHFKGSRSEQERSLRDSCTLYVGNLSFYTTEEQIHELFSRCGDVRVIVMGLDKYKKTPCGFCFVEYYVRSEAEAAMRFVNGTRLDDRLIRVDWDAGFVEGRQYGRGKTGGQVRDEYRTDYDAGRGGYGKLLSQKIAPNTDNR
For B2, the binding entry in assay [3] is listed as “no binding”.

B3: ENY2 (protein, UniProt Q9VYX1 1-101)
chain: T5 sequence
Consider B3, for which the binding result in assay [4] and in assay [5] was “binds” each time.

B4: Xmas-2 component of the mRNA export complex AMEX (protein, UniProt Q9U3V9-1 1-1370)
chain: MAEPRPGGYNYKTLLCRNIPELFLDKYVARSHFGRFGTLVNFVLRPRRMTCTVSYASEDEAARALLDGASFQGHLFDISYADNETAPAQKTEEWVDPDIQAELSALQSGWRNEYGSGKPIKKPQNGSSGSGGSSMLPAIPVGPATAPVSRDRTPAQLRDLENMMRRPAHTSEEKFSVLDARDKLLRLNRTQHKLSGATQGHCADMCPEKERVLREFQRQVAYYELQPGSDELICHERALKQYSRSSADQETPLPHELRNETALHMTMSYLMHEIMDISERQDPQSHMGDWFHFVWDRTRSIRKEITQQELCSLGAVKLVEQCARFHIHCAARLVDADPSVFDSKINAENLTKCLQTLKYMYHDLRIKGVPCPKEAEFRGYIVLLNLADANFLWDIGQLPAELQSCPEVRQAIQFYLALQDTNFVRFFQLLADKDTSYLSACILVNYFTRLRVLGLHRLIQAYRSPRKDEVSSLPLSYIAELLSFASEQEAADFVQHYGLQINEAGRVVLSRMHTVETEYKLPRQYELVEVKRVKSVGEVVSGEPLPPRDLYLNHRPHNSFDDYGMLKSIAWTAKDQLAGMQQEEMQPQMPSQPPAVSKHSDTLFKVPMQPDGTAAGFGVFAAAAVPPASSIDGFSFVLPKSRAQEFQEQAPATQQRRAQEEAKHQALQVAIAAAKKREAELMAIHEAKVAEAERVRQQKLRERQEQQRRQQQELEEQRQREQEKLQLEKERQLKLEQLFFVQQQEREAHKQTRTLELYQEIFQDTLAEICQSEFMSHSRACRSYESMLDSITRDLVERQMEQSIYELGVMRVCIRRWRKYRRTQQEKDTLFNQLPLSFGAENPEGVVNKRSMEDSLRLSRRYRLGEPCDYGKLLAGLEEHSWLKLDLWHVLDKCLPVAQPGARRFYKLLISLSGGQEGLQLNCDLDRGLLQQPQSPDARFVDGGYIRGFSQGIGLSVMKIRDDDHDWKATDLAEANGIICLIGLDDIRLLPDRLKPLLQASRCHDVAVIVQHPANTAFVQPDIPLQELCLRSFNIFRLRKSGNNRQRLMIALESAVKFLAKATERKRVGHLHQVETREYLLVNLGSELFRRLKYAAEHDTAIRSDTQLNPQRCVDLFNEAVHRLQLVAGEDLSDWPQFPEELRVFVQPLPIESSLNTNRLEHFEPGWHLPERRQRIVQLLERCKLPKMPVLPRSSSLAEAQCQWVLDYAQISQQEDCVEQIALQAIKILQYDTDDYLNFVEYLAGERMQYILRQERNPPQGIVYNTKTLKRRFLSAWYYEFREPQIYEPVPAEENAQMLEKQPSSQAEVQQLDFDEITSKAEAVLKRFHQRQDERHTLRELNRSHKSRKRRDASDHKHASKHKRKRSKSK
As for B4, the figures for the binding result in assay [6] and in assay [5] were “no binding” and “binds”, respectively.

B5: FLAG-tagged Sgf11 (protein, UniProt Q9VVR6 1-196)
chain: T2 sequence
For B5, the binding entry in assay [7] was “binds”.

B6: Sgf11 (protein, UniProt Q9VVR6 1-196)
chain: T2 sequence
On to B6, for which, in assay [8], the binding entry is reported as “binds”.
